Publication PMC9911399, “Two distinct binding modes provide the RNA-binding protein RbFox with extraordinary sequence specificity”
Where a chain is given by its changes, count along the chain named. This is one part of the list.

T1: RBFOX1 RRM (Homo sapiens, UniProt Q9NWB1 109-208)
T1 sequence: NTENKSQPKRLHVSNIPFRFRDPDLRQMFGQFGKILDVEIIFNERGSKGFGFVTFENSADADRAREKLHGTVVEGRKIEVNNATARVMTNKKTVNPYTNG

B1: UGCUAGC (DNA:RNA)
RNA: GGGAGACCGGAAUUCAGAUUGUCCUGCUAGCUUAAAUCCCGUCGUAGCCACCA
DNA 1: CAATCTGAATTCCGGTCTCCC
DNA 2: TGGTGGCTACGACGGGATT
B2: ACCCGGC (DNA:RNA)
RNA: B1 RNA with U25A, G26C, U28C, A29G
DNA 1: CAATCTGAATTCCGGTCTCCC
DNA 2: TGGTGGCTACGACGGGATT
B3: CAUAGCA (DNA:RNA)
RNA: GGGAGACCGGAAUUCAGAUUGUCCCAUAGCAUUAAAUCCCGUCGUAGCCACCA
DNA 1: CAATCTGAATTCCGGTCTCCC
DNA 2: TGGTGGCTACGACGGGATT
B4: AGUGGUC (DNA:RNA)
RNA: B3 RNA with C25A, A26G, A28G, C30U, A31C
DNA 1: CAATCTGAATTCCGGTCTCCC
DNA 2: TGGTGGCTACGACGGGATT
B5: GUGGAUC (DNA:RNA)
RNA: B1 RNA with U25G, G26U, C27G, U28G, G30U
DNA 1: CAATCTGAATTCCGGTCTCCC
DNA 2: TGGTGGCTACGACGGGATT
B6: CGCGUAU (DNA:RNA)
RNA: B1 RNA with U25C, U28G, A29U, G30A, C31U
DNA 1: CAATCTGAATTCCGGTCTCCC
DNA 2: TGGTGGCTACGACGGGATT
B7: UGUCGUA (DNA:RNA)
RNA: B3 RNA with C25U, A26G, A28C, C30U
DNA 1: CAATCTGAATTCCGGTCTCCC
DNA 2: TGGTGGCTACGACGGGATT
B8: CAGCUAC (DNA:RNA)
RNA: B3 RNA with U27G, A28C, G29U, C30A, A31C
DNA 1: CAATCTGAATTCCGGTCTCCC
DNA 2: TGGTGGCTACGACGGGATT
B9: CGUCGCG (DNA:RNA)
RNA: B3 RNA with A26G, A28C, A31G
DNA 1: CAATCTGAATTCCGGTCTCCC
DNA 2: TGGTGGCTACGACGGGATT
B10: UCUAACG (DNA:RNA)
RNA: B3 RNA with C25U, A26C, G29A, A31G
DNA 1: CAATCTGAATTCCGGTCTCCC
DNA 2: TGGTGGCTACGACGGGATT
B11: CUAAGGU (DNA:RNA)
RNA: B3 RNA with A26U, U27A, C30G, A31U
DNA 1: CAATCTGAATTCCGGTCTCCC
DNA 2: TGGTGGCTACGACGGGATT
B12: AGUACAU (DNA:RNA)
RNA: B3 RNA with C25A, A26G, G29C, C30A, A31U
DNA 1: CAATCTGAATTCCGGTCTCCC
DNA 2: TGGTGGCTACGACGGGATT
B13: AGUUAUA (DNA:RNA)
RNA: B1 RNA with U25A, C27U, G30U, C31A
DNA 1: CAATCTGAATTCCGGTCTCCC
DNA 2: TGGTGGCTACGACGGGATT
B14: UGACAAA (DNA:RNA)
RNA: B1 RNA with C27A, U28C, G30A, C31A
DNA 1: CAATCTGAATTCCGGTCTCCC
DNA 2: TGGTGGCTACGACGGGATT
B15: CCGUCUU (DNA:RNA)
RNA: B3 RNA with A26C, U27G, A28U, G29C, C30U, A31U
DNA 1: CAATCTGAATTCCGGTCTCCC
DNA 2: TGGTGGCTACGACGGGATT
B16: UGCCAAU (DNA:RNA)
RNA: B1 RNA with U28C, G30A, C31U
DNA 1: CAATCTGAATTCCGGTCTCCC
DNA 2: TGGTGGCTACGACGGGATT
B17: UUGCAUA (DNA:RNA)
RNA: B1 RNA with G26U, C27G, U28C, G30U, C31A
DNA 1: CAATCTGAATTCCGGTCTCCC
DNA 2: TGGTGGCTACGACGGGATT
B18: AAUUGGC (DNA:RNA)
RNA: B3 RNA with C25A, A28U, C30G, A31C
DNA 1: CAATCTGAATTCCGGTCTCCC
DNA 2: TGGTGGCTACGACGGGATT
B19: GGUAAAA (DNA:RNA)
RNA: B3 RNA with C25G, A26G, G29A, C30A
DNA 1: CAATCTGAATTCCGGTCTCCC
DNA 2: TGGTGGCTACGACGGGATT
B20: UCAGGAU (DNA:RNA)
RNA: B3 RNA with C25U, A26C, U27A, A28G, C30A, A31U
DNA 1: CAATCTGAATTCCGGTCTCCC
DNA 2: TGGTGGCTACGACGGGATT
B21: GAAAUGG (DNA:RNA)
RNA: B3 RNA with C25G, U27A, G29U, C30G, A31G
DNA 1: CAATCTGAATTCCGGTCTCCC
DNA 2: TGGTGGCTACGACGGGATT
B22: GUGCUUC (DNA:RNA)
RNA: B1 RNA with U25G, G26U, C27G, U28C, A29U, G30U
DNA 1: CAATCTGAATTCCGGTCTCCC
DNA 2: TGGTGGCTACGACGGGATT
B23: GACUCUU (DNA:RNA)
RNA: B1 RNA with U25G, G26A, A29C, G30U, C31U
DNA 1: CAATCTGAATTCCGGTCTCCC
DNA 2: TGGTGGCTACGACGGGATT
B24: UUUAACC (DNA:RNA)
RNA: B3 RNA with C25U, A26U, G29A, A31C
DNA 1: CAATCTGAATTCCGGTCTCCC
DNA 2: TGGTGGCTACGACGGGATT
B25: CGGACUG (DNA:RNA)
RNA: B3 RNA with A26G, U27G, G29C, C30U, A31G
DNA 1: CAATCTGAATTCCGGTCTCCC
DNA 2: TGGTGGCTACGACGGGATT
B26: CCGAUAG (DNA:RNA)
RNA: B3 RNA with A26C, U27G, G29U, C30A, A31G
DNA 1: CAATCTGAATTCCGGTCTCCC
DNA 2: TGGTGGCTACGACGGGATT
B27: AUUCGCC (DNA:RNA)
RNA: B3 RNA with C25A, A26U, A28C, A31C
DNA 1: CAATCTGAATTCCGGTCTCCC
DNA 2: TGGTGGCTACGACGGGATT
B28: CGUUUUA (DNA:RNA)
RNA: B3 RNA with A26G, A28U, G29U, C30U
DNA 1: CAATCTGAATTCCGGTCTCCC
DNA 2: TGGTGGCTACGACGGGATT
B29: CGUUAUC (DNA:RNA)
RNA: B1 RNA with U25C, C27U, G30U
DNA 1: CAATCTGAATTCCGGTCTCCC
DNA 2: TGGTGGCTACGACGGGATT
B30: UGGAACA (DNA:RNA)
RNA: B3 RNA with C25U, A26G, U27G, G29A
DNA 1: CAATCTGAATTCCGGTCTCCC
DNA 2: TGGTGGCTACGACGGGATT
B31: UACAAUC (DNA:RNA)
RNA: B1 RNA with G26A, U28A, G30U
DNA 1: CAATCTGAATTCCGGTCTCCC
DNA 2: TGGTGGCTACGACGGGATT

Target: T1, RBFOX1 RRM
Assay: EMSA; HiTS-Eq, 1 nM pool, 10 min; buffer printed only for the single-RNA assays: 10 mM Tris pH 7.5, 150 mM NaCl, 3.4 mM EDTA, 0.001% NP-40, 30 C
Conditions: tags: His6 N-terminal (pET28a); label: 5' 32P
Method in brief: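 These values rest on relative association constants, computed from read-count changes of each RNA species versus the control reaction and normalised to the cognate motif. Reads came from free RNA recovered by 8% native PAGE after purified RbFox RRM (wild type or mutant) at increasing concentrations was equilibrated for 10 min in 50 µL with 1 nM of a 5′-radiolabelled pool with 7 randomized nucleotides and DNA-annealed flanks.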

| Binder | binding signal |
| --- | --- |
| B1 | 0.0249 KA relative to UGCAUGU |
| B2 | 0.00693 KA relative to UGCAUGU |
| B3 | 0.00839 KA relative to UGCAUGU |
| B4 | 0.0167 KA relative to UGCAUGU |
| B5 | 0.0227 KA relative to UGCAUGU |
| B6 | 0.00781 KA relative to UGCAUGU |
| B7 | 0.0167 KA relative to UGCAUGU |
| B8 | 0.00539 KA relative to UGCAUGU |
| B9 | 0.0116 KA relative to UGCAUGU |
| B10 | 0.00601 KA relative to UGCAUGU |
| B11 | 0.0103 KA relative to UGCAUGU |
| B12 | 0.00291 KA relative to UGCAUGU |
| B13 | 0.00152 KA relative to UGCAUGU |
| B14 | 0.00629 KA relative to UGCAUGU |
| B15 | 0.0138 KA relative to UGCAUGU |
| B16 | 0.0121 KA relative to UGCAUGU |

| Binder | binding signal |
| --- | --- |
| B17 | 0.0139 KA relative to UGCAUGU |
| B18 | 0.00892 KA relative to UGCAUGU |
| B19 | 0.0023 KA relative to UGCAUGU |
| B20 | 0.00397 KA relative to UGCAUGU |
| B21 | 0.0147 KA relative to UGCAUGU |
| B22 | 0.0258 KA relative to UGCAUGU |
| B23 | 0.0109 KA relative to UGCAUGU |
| B24 | 0.0023 KA relative to UGCAUGU |
| B25 | 0.0352 KA relative to UGCAUGU |
| B26 | 0.0142 KA relative to UGCAUGU |
| B27 | 0.0134 KA relative to UGCAUGU |
| B28 | 0.00799 KA relative to UGCAUGU |
| B29 | 0.00879 KA relative to UGCAUGU |
| B30 | 0.0147 KA relative to UGCAUGU |
| B31 | 0.00223 KA relative to UGCAUGU |
